Results from PubChem BioAssay AID485344 (National Center for Advancing Translational Sciences (NCATS), 2010).
The whole screen tested about 340,000 compounds, of which about 6,900 (2%) were called active. Cut-off read from the data, not from the text of the source: active = inhibition above about 30%; inactive = below that, where a call was filed. Only a part is listed here, and it is no random draw. The source gives no active or inactive call for entries shown without one.
Note: 0% is about no effect.

Each molecule was assayed against D(2) dopamine receptor (Homo sapiens) (UniProt P14416) (assay: HTS Assay for Allosteric Antagonists of the Human D2 Dopamine Receptor: Primary Screen for Antagonists). Details: HEK293 TREx D2 cells, calcium flux, dopamine EC80; at 10 µM; stronger effect = higher value.
Chain of UniProt P14416 (P14416 whole entry, looked up): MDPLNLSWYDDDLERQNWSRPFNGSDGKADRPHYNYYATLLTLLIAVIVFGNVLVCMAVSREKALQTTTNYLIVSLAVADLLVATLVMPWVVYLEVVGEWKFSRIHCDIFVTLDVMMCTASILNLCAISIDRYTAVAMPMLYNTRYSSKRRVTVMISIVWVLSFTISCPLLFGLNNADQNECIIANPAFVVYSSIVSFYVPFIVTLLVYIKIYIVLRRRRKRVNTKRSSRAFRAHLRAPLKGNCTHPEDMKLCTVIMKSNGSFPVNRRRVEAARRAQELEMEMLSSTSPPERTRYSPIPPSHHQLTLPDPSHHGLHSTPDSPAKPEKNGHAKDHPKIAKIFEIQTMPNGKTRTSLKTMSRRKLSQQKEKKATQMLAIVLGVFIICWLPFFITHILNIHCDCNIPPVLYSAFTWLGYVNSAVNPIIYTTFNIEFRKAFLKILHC
How it was run: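 Tetracycline-induced HEK293 TREx cells expressing D2 receptor forced-coupled to calcium signalling, loaded with no-wash calcium dye. Compounds added and calcium flux read 180 s, then dopamine added at EC80 and read a further 180 s.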
COc1ccccc1NC(=O)c1cc(C2CC2)nc2c1c(C)nn2-c1ccc(C)cc1 showed an inhibition of 2.28%.
For O=c1c(N2CCc3ccccc3C2)csc2ccc(Br)cc12, the inhibition was -11.2%.
With Cc1cc(C)n(C(=O)CNc2ccccc2Cl)n1 the inhibition was active: 32.2%.
Molecule COc1ccccc1Cc1nc2ccccc2nc1SCC(=O)N1CCC(C)CC1 has an inhibition of 16.9%.
Molecule CCOC(=O)c1cc(-c2ccccc2)n(CCCC(=O)Nc2cc(C)ccc2OC)c1C has an inhibition of -0.389%.
With Cc1cccc(C(=O)Nc2ccc(N3CCN(c4ccc(F)cc4)CC3)c(C(=O)O)c2)c1 the inhibition was -14.9%.
With Cc1cccc(N2CCN(c3c4c(nc5nncn35)CCC4)CC2)c1C the inhibition was 2.96%.
Molecule C=Cc1ccc(Cn2c(=O)cc(C)c3c(C)nn(C)c32)cc1 has an inhibition of 0.154%.
COc1cc(-c2nnc(SCC(=O)Oc3ccccc3Cl)o2)cc(OC)c1OC gave an inhibition of -13.9%.
Work on COc1ccc(S(=O)(=O)c2cn(Cc3ccccc3)c3ccc(OC)cc3c2=O)cc1 yielded an inhibition of 26.2%.
CN(C)c1ccc(C(CNS(=O)(=O)c2ccc(F)cc2)N2CCc3ccccc32)cc1 (stereo unspecified) was tested, and the inhibition was 6.69%.
COc1ccccc1NC(=O)c1cc(S(=O)(=O)N2CCc3ccccc32)ccc1F was tested, and the inhibition was 27.1%.
COc1ccc(NC(=O)c2cc3c(=O)n(Cc4cccnc4)ccc3nc2C)cc1Cl gave an inhibition of -11.8%.
Cc1oc(-c2cccc(Cl)c2)nc1CN1CCC(C(=O)NCCc2ccc(Cl)cc2)CC1 was tested, and the inhibition was 7.21%.
Molecule COc1cccc(OCC(=O)Nc2nnc3n2CCS3)c1 has an inhibition of 11.4%.
In the case of CCc1ccc(C2=C(C)C(N3CCC(C(=O)NCCc4ccco4)CC3)=NS2(=O)=O)cc1, the inhibition is reported as 8.72%.
With COc1ccc(C(=O)Nc2ccc(N3CCOCC3)c(C(F)(F)F)c2)cc1OC the inhibition was -4.4%.
With Cc1nn(C)c(C)c1NC(=S)Nc1ccc(S(=O)(=O)Nc2ncccn2)cc1 the inhibition was active: 30.5%.
With Cc1cccc(NC(=O)CSc2nc(=O)n(Cc3cccnc3)c3c2CCC3)c1C the inhibition was -22.6%.
CCc1ccc(CNC(=O)CN2C(=O)CCn3nc(-c4cn(C)c5ccccc45)cc32)cc1 gave an inhibition of 6.62%.
With COc1ccccc1-c1nnc(SCC(=O)c2ccc(F)cc2)n1-c1ccccc1 the inhibition was 3.18%.
Work on Cn1nnnc1SCCNCc1ccc(OCc2ccc(Cl)cc2)cc1 yielded an inhibition of -18.9%.
Work on O=C(Nc1cccc(Cl)c1)C1CCCN1S(=O)(=O)c1cccc2cccnc12 (stereo unspecified) yielded an inhibition of -5.73%.
Cc1ccc(CN2C(=O)c3ccccc3Sc3ccc(C(=O)NCCCN4CCOCC4)cc32)cc1 showed an inhibition of -9.33%.
Work on Cc1cc(Cl)ccc1OCc1cc(=O)n2c3c(sc2n1)CCCC3 yielded an inhibition of -0.183%.
For CCC(=O)N1CCc2cc(CNC(=O)Nc3cc(Cl)ccc3C(=O)OC)ccc21, the inhibition was 4.98%.
In the case of COc1ccc(N2CCN(C(=O)COC(=O)c3cccc(S(=O)(=O)Nc4cccc(C)c4)c3)CC2)cc1, the inhibition is reported as active: 40.2%.
Molecule CCc1cccc(NC(=O)C(CC(C)C)NS(=O)(=O)c2ccc3c(c2)oc(=O)n3C)c1 (stereo unspecified) has an inhibition of 24.4%.
COc1ccccc1CN1CCC(CNC(=O)c2cnn(-c3ccc(C)c(C)c3)c2C2CCN(C(=O)OC(C)(C)C)CC2)CC1 was tested, and the inhibition was -11.4%.
For CCCN(CCC)CCNC(=O)c1cc(-c2ccc(Br)s2)nc2ccccc12, the inhibition was 1.99%.
For Brc1ccc2nc(-c3ccccc3)c(Nc3ccc4c(c3)OCO4)n2c1, the inhibition was 5.42%.
CCc1noc(-c2ccc(N3CCCCC3)c([N+](=O)[O-])c2)n1 gave an inhibition of 18.4%.
Work on Cc1cc(OCC(=O)NCC2(N3CCOCC3)CCCCC2)ccc1Cl yielded an inhibition of 10.1%.
Molecule Cc1cccc(N2CCN(C(c3ccccc3)c3nnc(-c4ccccc4Cl)o3)CC2)c1C (stereo unspecified) has an inhibition of 6.81%.
Work on Fc1ccccc1N1CCN(c2ncc3c(n2)CCN(Cc2cc(Br)cs2)C3)CC1 yielded an inhibition of -3.68%.
CCOc1ccccc1NC(=O)C(c1ccccc1)N1Cc2ccccc2C1=O (stereo unspecified) was tested, and the inhibition was -7.99%.
Cn1nnc2c(N3CCN(c4cccc(C(F)(F)F)c4)CC3)ncnc21 gave an inhibition of -23.8%.
COc1ccc(OC)c(CNC(=O)CN2CC(C)Sc3ccccc32)c1 (stereo unspecified) was tested, and the inhibition was -2.97%.
O=C(Nc1cccc(F)c1F)C1CCN(c2ncccn2)CC1 gave an inhibition of 5.92%.
CCSc1nn(CC(=O)Nc2ccc(C(=O)OC)cc2)c(N)c1S(=O)(=O)c1ccc(C)cc1 gave an inhibition of 4.59%.
Work on COC(=O)c1cc2occc2n1CC(=O)Nc1ccc(C(C)C)cc1 yielded an inhibition of -8.39%.
With O=C(Nc1ccc(F)cc1)N1CCN(C(=O)c2nsc3ccccc23)CC1 the inhibition was -2.66%.
For COc1cccc(-n2nnc(-c3nc(-c4ccccc4F)no3)c2C)c1, the inhibition was -6.7%.
COC(=O)c1cc(NC(=O)c2ccc3c(c2)NC(=O)c2ccccc2S3)cc(C(=O)OC)c1 showed an inhibition of 13.1%.
Molecule COc1ccc(-c2nc3c(c(SCC(=O)N4CCCCC4)n2)Cc2c(CO)cnc(C)c2O3)cc1 has an inhibition of 3.91%.
Molecule CSc1cccc(NC(=O)Cn2ncn3c(cc4ccccc43)c2=O)c1 has an inhibition of -3.25%.
O=C(NC1CCN(Cc2ccccc2)CC1)c1cncc(Br)c1 was tested, and the inhibition was active: 84.6%.
For O=C1COc2ccc(-c3cc(-c4ccccc4)c4c(n3)-c3cc(Cl)ccc3OC4)cc2N1, the inhibition was -0.0482%.
Cc1cccc(NC(=O)CCc2c(C)nc3c(c(C)nn3C(C)(C)C)c2C)c1C was tested, and the inhibition was -8.08%.
Work on CC1CCc2c(sc3nnn(CC(=O)Nc4ccc(Cl)cc4)c(=O)c23)C1 (stereo unspecified) yielded an inhibition of -1.39%.
With Cc1ccc(N2CCN(S(=O)(=O)c3ccc4[nH]c5c(c4c3)CCCCC5)CC2)c(C)c1 the inhibition was 12%.
CCN(C(=O)c1cn(CC)c(=O)c2cc(OC)c(OC)cc12)c1ccc(C)c(C)c1 gave an inhibition of 13.2%.
COc1ccc(CNC(=O)c2cnc(N3CCOCC3)c3ccccc23)cc1 gave an inhibition of -3.84%.
For Cc1ccc(Cl)cc1N1CCN(C(=O)c2cc3c(-c4ccccc4F)nn(C)c3s2)CC1, the inhibition was -0.372%.
CCc1ccc2oc(-c3cc(NC(=O)c4cc([N+](=O)[O-])ccc4N4CCOCC4)ccc3Cl)nc2c1 gave an inhibition of 3.14%.
CCCN(CCC)C(=O)Cn1c(=O)n(-c2ccc(Cl)cc2)c(=O)c2c3c(sc21)CCCC3 was tested, and the inhibition was -6.29%.
In the case of COc1ccc(NC(=O)CSc2nc(-c3ccco3)cc(C(F)(F)F)n2)cc1Cl, the inhibition is reported as 16.4%.
Work on Fc1ccc(-c2cn3cc(Cc4ccccc4)sc3n2)cc1 yielded an inhibition of 9.37%.
CCCCS(=O)(=O)c1nc(-c2ccc(Br)cc2)cc(-c2ccccc2)c1C#N showed an inhibition of 3.65%.
For Cc1oc(-c2cccc(Cl)c2)nc1Cn1c(SCc2ccccc2F)nc2ccncc21, the inhibition was 13.3%.
For Cc1cc(C)cc(NC(=O)Cn2c(C(F)(F)F)nc3ccccc32)c1, the inhibition was -6.2%.
Cc1ccccc1NC(=O)CSc1nnc(-c2cccs2)o1 showed an inhibition of 17.1%.
For CC(=O)N1CCc2cc(C(=O)CN3CCN(c4cccc(Cl)c4)CC3)ccc21, the inhibition was active: 73%.
COc1ccccc1NC(=O)CSC1=Nc2ccccc2C2=NC(CC(=O)NCc3cccs3)C(=O)N12 (stereo unspecified) gave an inhibition of 0.197%.
With COc1ccc(CCNC(=O)c2ccc3c(c2)N(Cc2ccccc2C)C(=O)c2ccccc2S3)cc1OC the inhibition was -9.16%.
Work on Cc1nn(CC(=O)N2CCN(c3cccc(C(F)(F)F)c3)CC2)c(=O)c2cccn12 yielded an inhibition of 4.91%.
Cc1nn(C)c2c1c(C(F)(F)F)cc(=O)n2C(C)C(=O)NCc1ccccc1Cl (stereo unspecified) was tested, and the inhibition was 2.6%.
Cc1cc(NC(=O)c2cc(-c3cccs3)nc3ccccc23)no1 was tested, and the inhibition was active: 37.3%.
With COc1ccc(CNC(=O)c2ccc(CNS(=O)(=O)c3ccc(F)cc3)cc2)cc1 the inhibition was -10.2%.
With CCOc1ccc(OCC)c(NC(=O)Nc2ccc3c(c2)N(C)C(=O)CS3)c1 the inhibition was active: 64.2%.
Work on COC(=O)c1sccc1S(=O)(=O)N(CC(=O)NCc1ccc(F)cc1)c1ccc(Cl)cc1 yielded an inhibition of 18.8%.
For Cc1ccc(NC(=O)Cn2nnc(C(=O)NCc3cccs3)c2N)cc1Cl, the inhibition was 5.05%.
Work on COc1ccc(Cn2nnc3c(=O)[nH]c(C4CCN(C(=O)c5ccc(C)cc5)CC4)nc32)cc1OC yielded an inhibition of -2.04%.
COc1ccc(NC(=O)Cn2c(=O)n(Cc3ccc(C(=O)NCc4ccccc4Cl)cc3)c(=O)c3ccccc32)cc1 gave an inhibition of 15.3%.
In the case of O=C(CCN1CCN(c2ccc(F)cc2)CC1)Nc1ccccc1F, the inhibition is reported as active: 65.4%.
Cc1cc(F)ccc1NC(=O)Cn1c(=O)ccc2cc(S(=O)(=O)N3CCC(C)CC3)ccc21 was tested, and the inhibition was -18.9%.
CCN(CC)CCCNC(=O)CN1N=C(c2ccccc2)CCC1=O gave an inhibition of 10.1%.
Cc1ccc(NC(=O)C2CCCN2S(=O)(=O)c2ccc3c(c2)CCCC(=O)N3)cc1Cl (stereo unspecified) was tested, and the inhibition was 6.34%.
In the case of Cc1cccc(NC(=O)CSc2nc3ccc(NC(=O)COc4ccccc4F)cc3s2)c1, the inhibition is reported as 1.25%.
Cc1ccc(NC(=O)C(C)[n+]2ccccc2)cc1[N+](=O)[O-] (stereo unspecified) was tested, and the inhibition was active: 59.9%.
With O=C(CSc1ccc2nc(-c3ccccc3)cn2n1)Nc1cccc(F)c1 the inhibition was -8.08%.
For COc1ccc(NC(=O)c2c(NC(=O)Cc3ccccc3)sc3c2CCCC3)cc1, the inhibition was -11.3%.
With O=C1CC(N2CCN(c3ccccc3)CC2)C(=O)N1c1ccc2c(c1)OCCO2 (stereo unspecified) the inhibition was active: 37.9%.
CC1=C(C(=O)Nc2ccc(Cl)cc2)C(c2ccc(C(F)(F)F)cc2)n2nnnc2N1 (stereo unspecified) was tested, and the inhibition was -12.3%.
For CCOC(=O)c1c(C)sc(-c2c(-c3ccc(OC)c(F)c3)[nH]c3[nH]c(=O)[nH]c(=O)c23)c1O, the inhibition was -5.06%.
COC(=O)c1cnn(-c2ccc(C(=O)Nc3cc(OC)c(OC)c(OC)c3)cc2)c1N showed an inhibition of -6.61%.
In the case of COc1ccc(-c2nc(SCC(=O)N3CCCCC3C)n[nH]2)cc1 (stereo unspecified), the inhibition is reported as -9.33%.
For CCc1cccc(C)c1Nc1c(-c2cccc(O)c2)nc2nc(C)cc(C)n12, the inhibition was -12.1%.
With Cc1ccc(CN(Cc2ccco2)C(=O)c2ccc(Cl)cc2)o1 the inhibition was 23.6%.
CCc1ccc(-n2c(=O)c3c(C)c(C(=O)N(C)C)sc3n(Cc3ccccc3C#N)c2=O)cc1 showed an inhibition of 8.47%.
With CCc1ccccc1NC(=O)CSc1ncc(S(=O)(=O)c2ccc(C(C)C)cc2)c(N)n1 the inhibition was -19.2%.
COc1ccc(NC(=O)CSc2nccn2Cc2ccco2)c(OC)c1 showed an inhibition of 4.25%.
CCC1CCCCN1C(=O)Cn1c(=O)cc(C(F)(F)F)c2c(C)nn(C)c21 (stereo unspecified) showed an inhibition of -2.85%.
Molecule O=C1c2[nH]nc(-c3ccccc3O)c2C(c2ccc(F)cc2)N1CCO (stereo unspecified) has an inhibition of 2.2%.
Molecule COc1ccc(OC)c(NC(=O)Cc2c(C(=O)O)n(C)c3ccc(C)cc23)c1 has an inhibition of -18.9%.
In the case of COc1ccc(Cl)cc1NS(=O)(=O)c1cccc(C(=O)NCC(c2ccco2)N2CCCC2)c1 (stereo unspecified), the inhibition is reported as active: 38.5%.
